Experimental findings from PubChem BioAssay AID1745853 (National Center for Advancing Translational Sciences (NCATS), 2022) are described below.

Holding throughout (assay): Primary Screen for Target Class Profiling of Small Molecule Inhibitors of Methyltransferases
Experiment [1] deals with Glycine N-methyltransferase (Homo sapiens) (UniProt Q14749). To be noted: purified enzyme, MTase-Glo SAH luminescence; measured here: GNMT inhibition; at 40 µM; stronger effect = lower value. The essentials: (§1)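 Each enzyme was reacted with SAM and its substrate, with compounds tested once at 40 uM; SAH formed was read by MTase-Glo luminescence.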
Experiment [2] concerns the target Guanidinoacetate N-methyltransferase (Homo sapiens) (UniProt Q14353). To be noted: purified enzyme, MTase-Glo SAH luminescence; measured here: GAMT inhibition; at 40 µM; stronger effect = lower value. In outline: as §1
Experiment [3] has as its target Histamine N-methyltransferase (Homo sapiens) (UniProt P50135). To be noted: purified enzyme, MTase-Glo SAH luminescence; measured here: HNMT inhibition; at 40 µM; stronger effect = lower value. The essentials:
as §1

For experiment [4], the target named is Nicotinamide N-methyltransferase (Homo sapiens) (UniProt P40261). To be noted: purified enzyme, MTase-Glo SAH luminescence; measured here: NNMT inhibition; at 40 µM; stronger effect = lower value. In outline: as §1
Experiment [5] concerns the target Phenylethanolamine N-methyltransferase (Homo sapiens) (UniProt P11086). As to conditions: purified enzyme, MTase-Glo SAH luminescence; measured here: PNMT inhibition; at 40 µM; stronger effect = lower value. In outline:
as §1

The list shows a part of the results. Further columns of the screen follow, without active or inactive calls.
% is set by controls: 0 for no effect and ±100 for the full control effect.

With `Cc1cn2cc(C(=O)N(C)CCO)cc(NC3CCOc4cccc(C)c43)c2n1` (stereo not given), the activity change, negative = inhibition in experiment [1] was -8.52%; in experiment [2] it was -7.66%; in experiment [3], 0.044%; in experiment [4], -21%; in experiment [5] it was -4.01%.
Turning to `CC(C)NC(=O)c1nsc(C(=O)NCc2ccncc2)c1N`, the activity change, negative = inhibition in experiment [1] worked out at 14.6%; in experiment [2] it was 1.53%; in experiment [3], 12.6%; in experiment [4], 5.3%; in experiment [5], 6.04%.
In the same order, the values of `CC(=O)Nc1c2n(c3ccc(F)cc13)CC(C)(C(=O)NC1CCCC1)N(CCC(C)C)C2=O` (stereo not given) are 4.64%, 0%, 6.04%, 9.34% and -0.025%.
Regarding `COc1ccccc1CNC(=O)C1(C)Cn2c(cc3ccccc32)C(=O)N1CCc1ccccc1` (stereo not given), the activity change, negative = inhibition in experiment [1] was 4.13%; in experiment [2] it was 0.738%; in experiment [3], 6.24%; in experiment [4] it was 9.79%; in experiment [5] it was 1.99%.
Regarding `O=C(O)c1cc2c(s1)CCN(C(=O)c1ccc(F)cc1)C2`, the activity change, negative = inhibition in experiment [1] is 1.15%; in experiment [2], -1.56%; in experiment [3] it was 1.49%; in experiment [4], 3.73%; in experiment [5], 2.58%.
For `CCC(C)C(=O)OC1CC(C)C=C2C=CC(C)C(CCC(O)CC(O)CC(=O)O)C21` (stereo not given), in that order: 1.15%, 0.311%, 9.38%, -13.5% and -8.56%.
`O=C(CCc1nnc2n(Cc3ccc(Cl)cc3)c(=O)c3ccccc3n12)N1CCOCC1`: the activity change, negative = inhibition was -3.71% in experiment [1]; 0.23% in experiment [2]; 7.57% in experiment [3]; 1.21% in experiment [4]; 0.454% in experiment [5].
With `COC(=O)c1ncn2c1C(=O)N(Cc1cccc(OC)c1)C(C)(C(=O)NC1CCCC1)C2` (stereo not given), the activity change, negative = inhibition in experiment [1] was -6.61%; in experiment [2], -0.557%; in experiment [3], -1.76%; in experiment [4], -2.58%; in experiment [5] it was -3.79%.
In the same order, the values of `CC(C)CNC(=O)c1ccc2c(=O)n(CC(C)C)c3nn(CC(=O)NC4CCCC4)c(=O)n3c2c1` are 3.87%, 3.84%, 6.53%, -4.49% and -2.24%.
For `C/C=C(\C)C(=O)OC[C@H]1O[C@@H](O[C@H]2[C@@H](O[C@H]3O[C@H](COC(=O)/C(C)=C/C)[C@@H](O)[C@H](O)[C@H]3O[C@@H]3O[C@H](CO)[C@@H](O)[C@H](OC(=O)/C(C)=C/C)[C@H]3O)O[C@H](COC(=O)/C(C)=C/C)[C@@H](O)[C@@H]2O)[C@H](O)[C@@H](O)[C@@H]1O`, in that order: -2.15%, -4.03%, 0.71%, -11.7% and -0.858%.
For `O=C(c1nc2c(o1)CCN(Cc1cccc(F)c1)CC2)N1CCOCC1`, in that order: -5.07%, -3.22%, -0.903%, -5.39% and -8.27%.
For the compound `COCCc1nncn1C1CCN(C(=O)c2ccc(C)s2)CC1`, the activity change, negative = inhibition in experiment [1] was -2.64%; in experiment [2], -6.5%; in experiment [3], -1.27%; in experiment [4], -11.5%; in experiment [5], -7.74%.
For `O=C(NCCc1ccccc1)N1CC(c2noc(C3CCCN3CC3CC3)n2)C1` (stereo not given), in that order: -2.48%, 1.06%, -1.03%, 3.14% and 4.06%.
In the case of `COc1ccc(CN2C(=O)c3cc(C(C)(C)C)nn3CC2(C)C(=O)NC2CCCCCC2)cc1` (stereo not given), the activity change, negative = inhibition in experiment [1] is -0.514%; in experiment [2] it was 2.88%; in experiment [3], 1.98%; in experiment [4], -12.7%; in experiment [5], 0.175%.
For `c1cc(NC2CCNCC2)nc(-c2cnc3ccccn23)c1`, the activity change, negative = inhibition is -0.19% in experiment [1]; -1.38% in experiment [2]; -7.28% in experiment [3]; -74.4% in experiment [4]; -14.5% in experiment [5].
For `Cc1ccc2c(c1)c1c3n2CCN(CC(O)CNC(C)C)C3CCC1` (stereo not given), in that order: -2.79%, 3.53%, -6.44%, 4.26% and -8.61%.
In the same order, the values of `CC1(C(=O)NC2CCCCC2)Cn2c(cc3ccccc32)C(=O)N1C1CCCCCC1` (stereo not given) are 0.232%, 0%, -0.69%, 3.23% and -1.16%.
For `CC1(C)C[C@H](O)C[C@@]2(C)[C@H]1[C@H](O)C=C1COC(=O)[C@@]12O`, in that order: 0%, -4.13%, 0.68%, -17% and 1.97%.
Turning to `Cc1cc(Cl)ccc1NC(=O)c1cc2n(n1)CC(C)(C(=O)NC1CCCCC1)N(C)C2=O` (stereo not given), the activity change, negative = inhibition in experiment [1] was found to be 4.71%; in experiment [2], 3.52%; in experiment [3] it was 7.43%; in experiment [4], 5.53%; in experiment [5] it was 3.72%.
For `CCOc1cc(C(=O)Nc2ccc(Cl)c(-c3nc4ccccc4[nH]3)c2)cc(OCC)c1OCC`, in that order: 2.66%, -5.3%, 11.3%, -35.6% and -4.27%.
For `Cc1cc2c(cc3n2CC(C)(C(=O)NC2CCCCCC2)N(Cc2ccccn2)C3=O)o1` (stereo not given), the activity change, negative = inhibition in experiment [1] was 1.33%; in experiment [2] it was 0%; in experiment [3], 1.96%; in experiment [4], -2.85%; in experiment [5], 1.54%.
For `Cc1cc(C)cc(N2C(=O)c3cc(-c4ccccc4)nn3CC2(C)C(=O)NCc2ccccc2)c1` (stereo not given), in that order: -1.64%, 5.1%, 0.505%, -3% and -0.008%.
In the same order, the values of `CC1(C(=O)NC2CCCCCC2)Cn2c(ccc2-c2ccco2)C(=O)N1CCc1ccco1` (stereo not given) are 0.063%, -2.72%, 5.73%, 2.51% and 3.97%.
For `CC1COC(Nc2ccc3ncnc(Nc4ccc(OCc5nccs5)c(Cl)c4)c3c2)=N1` (stereo not given), in that order: -8.68%, 20.5%, -37.2%, -8.77% and 3.24%.
`CC1(C(=O)NC2CCCCCCC2)Cn2c(cc3occc32)C(=O)N1CCCN1CCCCCC1` (stereo not given): the activity change, negative = inhibition in experiment [1] is -1.42%; in experiment [2], 2.84%; in experiment [3], -4.63%; in experiment [4], 16.4%; in experiment [5] it was -1.24%.
Regarding `CCC1CCCCN1CCCN1C(=O)c2cc3occc3n2CC1(C)C(=O)NC1CCC(C)CC1` (stereo not given), the activity change, negative = inhibition in experiment [1] was 6.02%; in experiment [2] it was 1.22%; in experiment [3], -3.66%; in experiment [4], 10.6%; in experiment [5] it was 4.15%.
Regarding `CCCn1c(=O)c2cc(Cl)ccc2n2c(SCC(=O)Nc3ccc4c(c3)OCCO4)nnc12`, the activity change, negative = inhibition in experiment [1] is -6.23%; in experiment [2] it was 0%; in experiment [3] it was 0.972%; in experiment [4], -4.16%; in experiment [5], 4.08%.
For `C=C1CCC(OC(C)=O)C2(C)CC3OC(=O)C(C)=C3CC12` (stereo not given), in that order: 2.58%, 2.96%, 9.45%, -13.5% and -4.09%.
For the compound `O=C(NCC1CCOC1)C1CCN(c2nc(-c3ccccc3)nc3c2CCC3)CC1` (stereo not given), the activity change, negative = inhibition in experiment [1] is -3.34%; in experiment [2] it was 0.817%; in experiment [3] it was -2.1%; in experiment [4] it was 0.792%; in experiment [5] it was 0.38%.
